# Laboratory results published in the supplement of paper PMC10338343.
# ± gives the standard deviation. In all, about 6,600 sequences were measured (“pre-steady-state target cleavage rate”: median about 0.07, highest 2% from about 0.72 on). The list shows a part of the results, in another mix than the full data.
# Test system: MIWI (PIWIL1) piRISC loaded with Kctd7 piRNA (30 nt)
# Experiment: pre-steady-state target cleavage rate (min^-1); MIWI and MILI are mouse PIWI proteins and EfPiwi is from a freshwater sponge; tags in brackets are library labels; higher = faster piRNA-guided slicing of the target
# Details: guide: Kctd7 piRNA 5'p-UGUUAAUCUCUCAGAGAAGGUGACAGUGAU; auxiliary factor: 500 nM mouse GTSF1
# How it was run: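 Reactions were run for 0–8 or 0–960 min at 33 °C in HEPES–potassium acetate buffer, combining 1 nM active affinity-purified piRISC with one synthetic guide, […] transcribed, DNA-blocked target RNA library and, in some cases, 500 nM GTSF1 partner protein. Sequencing of uncleaved targets followed, with normalisation to depth and to weakly complementary targets. Three trials were pooled, k3 was capped at 0.0001 min^-1, and the pre-steady-state cleavage rate was taken from a burst-and-steady-state fit.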
# 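Further: 1 nM active piRISC with 0.1 nM target library at 33 °C single turnover.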
row,Sequence,pre-steady-state target cleavage rate
1,AUCACUGUCACCUUCUCUGAGAGAGUAACA,0.397 ± 0.049
2,AUCACAGUGACCUUCUCUGAGAGAUUAACA,0.515 ± 0.026
3,UAGUCUGUAACCUUCUCUGAGAGAUUAACA,0.644 ± 0.037
4,AUCACUGUCACCUUCUCAGACAGAUUAACA,0.123 ± 0.01
5,UAGUCAGUCACCUUCUCUGAGAGAUUAUGA,0.124 ± 0.024
6,UAGUGACAGUGGAACUCUGAGAGAUUACA,< 0.0001
7,UACACUGUCGACCUUCUCUGAGAGAUUAACA,0.229 ± 0.026
8,UAGUCUGUCACCUUCACUGAGAGAAUAACA,0.146 ± 0.033
9,UAGUCUGUCACCUUCUCUGAGAGUAAUUGA,0.0434 ± 0.015
10,UACUCUGUCACCUUGUCUGAGAGAUUAACA,0.315 ± 0.047
11,UAGUGAGUCACCUUCUCUCAGAGAUAAACA,0.0437 ± 0.011
12,UAGUGACAGACGUUCUCUGAGAGAUAAACA,0.00538 ± 0.0027
13,AACACUGUCACCAUCUCUGAGAGAUUAACA,0.77 ± 0.035
14,AUCACUGUCGACCUUCUCUGAGAGAUUAACA,0.172 ± 0.017
15,UAGUGACACACCUUCAGUGAGAGAUUAAGA,0.00796 ± 0.0045
16,UUCACUGUCACCAUCUCAGAGAGAUUAACA,0.11 ± 0.014
17,UAGUGACAGACCUCUCUCUGAGAGAUUAACA,0.0185 ± 0.0034
18,UAGUGUGUCACCUUCUCUGAGAGUAUUUGA,0.0748 ± 0.029
19,AUCACUGUCACCUACUCUGAGAGAUUAUCA,0.272 ± 0.038
20,UAGUGACACACCUUCUGUGAGAGAUUUACA,0.0925 ± 0.013
21,UAGUGACUGUCCUUCUCUGAGAGAUUAACA,0.239 ± 0.029
22,UAGUGUGUCACCAUGUCUGAGAGAUUAACA,0.105 ± 0.012
23,UAGUGACAGUGGAAGAGUGACAGAAUAACA,< 0.0001
24,UAGUGUGUCACCAUCACUGAGAGAUUAACA,0.407 ± 0.043

row,Sequence,pre-steady-state target cleavage rate
1,UAGUGACACACCAUCUCUCAGAGAUUAACA,0.0101 ± 0.0048
2,UAGACUGUCAGCCUUCUCUGAGAGAUUAACA,0.231 ± 0.024
3,UUCACUGUCACCUUCUCUGAGCAGAUUAACA,0.00797 ± 0.0019
4,UACACUGUCACCUUCUCUGAGUAGAUUAACA,0.0159 ± 0.0063
5,UACACUGUCACCUUCUCUGAGUCUUUAUGA,0.00482 ± 0.0034
6,UAGUGACUCACCUUCUCUGUGAGAUUAAGA,0.0443 ± 0.0087
7,UAGUGUGUCACCUUCUCUGACAGAUAAACA,0.0549 ± 0.013
8,UACACUGUCACCUUCUCUGAGACAUAAACA,0.0579 ± 0.014
9,UAGUGAGUCACCUUGUCUCAGAGAUUAACA,0.0282 ± 0.0037
10,UUCACUGUCACCAUCUCUGAGAGAUUAAGA,0.134 ± 0.025
11,UAGUGAGUCUCCUUCUCUGAGAGAUAAACA,0.0762 ± 0.014
12,UACACUGUCACCUUCUCUGAGAGUUUAUGA,0.182 ± 0.054
13,UACUCUGUCACCUUCUCUGAGAGAUUUACA,0.409 ± 0.048
14,UAGUCUGUCACCUUCUCUGAGACAUAAACA,0.0237 ± 0.0074
15,UUCACUGUCACCUUCUCUGAGAAAUUAACA,0.273 ± 0.034
16,UUCACUGUCACCUUCUCUGAGACUUUAACA,0.0804 ± 0.02
17,UACACUGUCACCAAGUCUGAGAGAUUAACA,0.142 ± 0.018
18,UAGUCUGUCACCUUUUCUGAGAGAUUAACA,0.542 ± 0.029
19,UAGUGACUCACCUUCUCUGACAGUUUAACA,0.0576 ± 0.0089
20,UAGUGACACACCUACUCUGAGAGAUUUACA,0.0627 ± 0.012
21,UAGUGUGACACCUUCUCUGAGAGAUAUUGA,0.00676 ± 0.0045
22,UAGUGAGUCACCUUCUCUGAGUGAAUAACA,0.0154 ± 0.0058
23,UAGAGUGUCACCUUCUCUGACAGAUUAACA,0.459 ± 0.029
24,UAGUCUGUCACCUUCUCUGAGAGAUUAAUCA,0.277 ± 0.039

row,Sequence,pre-steady-state target cleavage rate
1,UAGUGUGUCACCUUCUCAGAGAGUUUAACA,0.255 ± 0.064
2,UAGUGAGUCACCUUCUUGAGAGAUUAACA,0.0288 ± 0.0073
3,UAGUGACACACCUUCUCUGAGAGAUUAUACA,0.246 ± 0.043
4,UAGUGACAGUCCCUUCUCUGAGAGAUUAACA,0.611 ± 0.046
5,UAGUGACUCACGUUCUCUGAGAGAUUUACA,0.0848 ± 0.016
6,UAGUGACUCACCAUCUCUGAGUGAUUAACA,0.0118 ± 0.0023
7,AUCACUGUCACCUUCUCUGUGAGUUUAACA,0.176 ± 0.017
8,UACACUGUCACCUUCUUUGAGAGAUUAACA,0.553 ± 0.04
9,UUCACUCUCACCUUCUCUGAGAGAUUAACA,0.54 ± 0.028
10,UAGUGUGUCACCUUCUCUGAGAGUUAACA,0.108 ± 0.032
11,UUCACUGAGACCUUCUCUGAGAGAUUAUGA,0.022 ± 0.0075
12,UAGUGACAGUGGUUGUGUGAGAGAUUAACA,< 0.0001
13,UAGUGAGUCACGAUCUCUGAGAGAUUAUGA,0.00927 ± 0.0037
14,UAGUGUGUCACGAUCUCUGAGAGAUUAACA,0.332 ± 0.022
15,UAGUGACAGUCCGUCUCUGAGAGAUUAACA,0.0126 ± 0.0033
16,UAGUGACAGAGCUUCUCUGAGAGAUAAACA,0.00756 ± 0.0026
17,UAGUCUGUCACCUUCUCUGAGAGACUUAACA,0.196 ± 0.029
18,UAGUGACACUCCUUCUCAGAGAGAUUAACA,0.0209 ± 0.0051
19,UAGACUGUGACCUUCUCUGAGAGUUUAACA,0.323 ± 0.043
20,UAGACUGUCACGUUCUCUGAGAGAAUAACA,0.202 ± 0.032
21,UAGUCUGUACCUUCUCUGAGAGAUUAACA,0.636 ± 0.038
22,UACACUGUCACCUUCUCAGAGAGAUUAUGA,0.0406 ± 0.014
23,UACACUGACACCUUGUCUGAGAGAUUAACA,0.141 ± 0.022
24,UAGUGAGUCACCUUCUCUGAGACGAUUAACA,0.0201 ± 0.0076
